Assay results published in the supplement of paper PMC8728848.
Some of the results follow.

Assays:
Assay in all cases: glycan array binding signal (z-score within array); higher = stronger binding
Conditions in all cases: glycan notation: IUPAC condensed, linker removed
Gal6S(b1-4)Glc = molecular target: Gal6S(b1-4)Glc
How it was run: (§1)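 From the Consortium for Functional Glycomics database, 3228 arrays were curated, keeping only those whose protein sequence was available. Binding is given as a within-array Z-score averaged across arrays sharing a protein sequence and across linkers. Negative Z-scores can be read as non-binding.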

Gal6S(b1-4)Glc6S = molecular target: Gal6S(b1-4)Glc6S
How it was run: as §1

Gal6S(b1-4)GlcNAc = molecular target: Gal6S(b1-4)GlcNAc
How it was run: as §1

Gal6S(b1-4)GlcNAc6S = molecular target: Gal6S(b1-4)GlcNAc6S
How it was run: as §1

GalNAc(a1-3)Gal = molecular target: GalNAc(a1-3)Gal
How it was run: as §1

GalNAc(a1-3)GalNAc = molecular target: GalNAc(a1-3)GalNAc
How it was run: as §1

[1] = molecular target: GalNAc(a1-3)GalNAc(b1-3)Gal(a1-4)Gal(b1-4)Glc
How it was run: as §1

[2] = molecular target: GalNAc(a1-3)GalNAc(b1-3)Gal(a1-4)Gal(b1-4)GlcNAc
How it was run: as §1

GalNAc(b1-3)Gal = molecular target: GalNAc(b1-3)Gal
How it was run: as §1

[3] = molecular target: GalNAc(b1-3)Gal(a1-4)Gal(b1-4)GlcNAc
How it was run: as §1

[4] = molecular target: GalNAc(b1-3)Gal(a1-4)Gal(b1-4)GlcNAc(b1-3)Gal(b1-4)Glc
How it was run: as §1

[5] = molecular target: GalNAc(b1-3)Gal(a1-6)Gal(b1-4)Glc
How it was run: as §1

GalNAc(b1-3)GalNAc = molecular target: GalNAc(b1-3)GalNAc
How it was run: as §1

GalNAc(b1-3)GlcNAc = molecular target: GalNAc(b1-3)GlcNAc
How it was run: as §1

GalNAc(b1-4)Gal(b1-4)Glc = molecular target: GalNAc(b1-4)Gal(b1-4)Glc
How it was run: as §1

GalNAc(b1-4)GlcNAc = molecular target: GalNAc(b1-4)GlcNAc
How it was run: as §1

[6] = molecular target: GalNAc(b1-4)GlcNAc(b1-2)Man
How it was run: as §1

[7] = molecular target: GalNAc(b1-4)GlcNAc(b1-2)Man(a1-3)[GalNAc(b1-4)GlcNAc(b1-2)Man(a1-6)]Man(b1-4)GlcNAc(b1-4)GlcNAc
How it was run: as §1

[8] = molecular target: GalNAc(b1-4)GlcNAc(b1-3)GalNAc(b1-4)GlcNAc
How it was run: as §1

GalNAc(b1-4)GlcNAc6S = molecular target: GalNAc(b1-4)GlcNAc6S
How it was run: as §1

GalNAc(b1-6)GalNAc = molecular target: GalNAc(b1-6)GalNAc
How it was run: as §1

GalNAc3S(b1-4)GlcNAc = molecular target: GalNAc3S(b1-4)GlcNAc
How it was run: as §1

GalNAc3S(b1-4)GlcNAc3S = molecular target: GalNAc3S(b1-4)GlcNAc3S
How it was run: as §1

[9] = molecular target: GalNAc3S(b1-4)[Fuc(a1-3)]GlcNAc
How it was run: as §1

GalNAc4S6S(b1-4)GlcNAc = molecular target: GalNAc4S6S(b1-4)GlcNAc
How it was run: as §1

GalNAc6S(b1-4)GlcNAc = molecular target: GalNAc6S(b1-4)GlcNAc
How it was run: as §1

Glc(a1-4)Glc = molecular target: Glc(a1-4)Glc
How it was run: as §1

[10] = molecular target: Glc(a1-4)Glc(a1-4)Glc(a1-4)Glc
How it was run: as §1

Glc(a1-6)Glc(a1-6)Glc = molecular target: Glc(a1-6)Glc(a1-6)Glc
How it was run: as §1

[11] = molecular target: Glc(a1-6)Glc(a1-6)Glc(a1-6)Glc
How it was run: as §1

Glc(b1-4)Glc = molecular target: Glc(b1-4)Glc
How it was run: as §1

Glc(b1-6)Glc = molecular target: Glc(b1-6)Glc
How it was run: as §1

GlcA(b1-3)Gal = molecular target: GlcA(b1-3)Gal
How it was run: as §1

GlcA(b1-3)GlcNAc = molecular target: GlcA(b1-3)GlcNAc
How it was run: as §1

GlcA(b1-6)Gal = molecular target: GlcA(b1-6)Gal
How it was run: as §1

[12] = molecular target: GlcA3S(b1-3)Gal(b1-4)GlcNAc(b1-2)Man
How it was run: as §1

[13] = molecular target: GlcA3S(b1-3)Gal(b1-4)GlcNAc(b1-3)Gal(b1-4)Glc
How it was run: as §1

[14] = molecular target: GlcNAc(a1-3)Gal(b1-4)GlcNAc
How it was run: as §1

[15] = molecular target: GlcNAc(a1-4)Gal(b1-3)GlcNAc
How it was run: as §1

[16] = molecular target: GlcNAc(a1-4)Gal(b1-4)GalNAc
How it was run: as §1

[17] = molecular target: GlcNAc(a1-4)Gal(b1-4)GlcNAc
How it was run: as §1

[18] = molecular target: GlcNAc(a1-4)Gal(b1-4)GlcNAc(b1-3)Gal(b1-4)Glc
How it was run: as §1

[19] = molecular target: GlcNAc(a1-4)Gal(b1-4)GlcNAc(b1-3)Gal(b1-4)GlcNAc
How it was run: as §1

[20] = molecular target: GlcNAc(a1-4)Gal(b1-4)GlcNAc(b1-3)Gal(b1-4)GlcNAc(b1-3)Gal(b1-4)GlcNAc
How it was run: as §1

[21] = molecular target: GlcNAc(a1-4)Gal(b1-4)GlcNAc(b1-3)Gal(b1-4)[Fuc(a1-3)]GlcNAc(b1-3)Gal(b1-4)[Fuc(a1-3)]GlcNAc
How it was run: as §1

B1: CC1G-11630 (Coprinopsis cinerea), A8P462 (protein)
chain: MTTEAKIKLKAVVYWELVFDYDNSSNTGEITQSYTVKISQTSTRSTFASEVSTTTIDTLTKNNQEVDVGASYGAISANVSASWEHSEEVNNMLEKTTQTSTEDTYTVETEETRSYTIGPGGMLSLFQKHFSGPGMHVAFDVFTTDLELAKERTEIDIDVDVEAIRFVREIRVVYTDIMSEAPGDHVREINGKNPDINYGFNGKFVWLVPEQTRKTAQALTNVEFVSQAESDDRYWDLAAGAGGSNRYLIPVYDTNNKDKIYELALWRSDSYITHDKVKAAGWSGTTGDINSGRGGTYLNLVWKTRHAY
glycan array binding signal (z-score) (Gal6S(b1-4)Glc): 0.479 | glycan array binding signal (z-score) (Gal6S(b1-4)Glc6S): 1.97 | glycan array binding signal (z-score) (Gal6S(b1-4)GlcNAc): 0.016 | glycan array binding signal (z-score) (Gal6S(b1-4)GlcNAc6S): 1.12 | glycan array binding signal (z-score) (GalNAc(a1-3)Gal): -0.341 | glycan array binding signal (z-score) (GalNAc(a1-3)GalNAc): -0.248 | glycan array binding signal (z-score) [1]: -0.544 | glycan array binding signal (z-score) [2]: -0.849 | glycan array binding signal (z-score) (GalNAc(b1-3)Gal): -0.06 | glycan array binding signal (z-score) [3]: 0.165 | glycan array binding signal (z-score) [4]: -0.129 | glycan array binding signal (z-score) [5]: -0.617 | glycan array binding signal (z-score) (GalNAc(b1-3)GalNAc): -0.822 | glycan array binding signal (z-score) (GalNAc(b1-3)GlcNAc): -0.463 | glycan array binding signal (z-score) (GalNAc(b1-4)Gal(b1-4)Glc): 1.99 | glycan array binding signal (z-score) (GalNAc(b1-4)GlcNAc): -0.011 | glycan array binding signal (z-score) [6]: -0.148 | glycan array binding signal (z-score) [7]: -0.267 | glycan array binding signal (z-score) [8]: -0.1 | glycan array binding signal (z-score) (GalNAc(b1-4)GlcNAc6S): -0.254 | glycan array binding signal (z-score) (GalNAc(b1-6)GalNAc): -0.821 | glycan array binding signal (z-score) (GalNAc3S(b1-4)GlcNAc): -0.609 | glycan array binding signal (z-score) (GalNAc3S(b1-4)GlcNAc3S): 0.1 | glycan array binding signal (z-score) [9]: 0.036 | glycan array binding signal (z-score) (GalNAc4S6S(b1-4)GlcNAc): 0.25 | glycan array binding signal (z-score) (GalNAc6S(b1-4)GlcNAc): -0.343 | glycan array binding signal (z-score) (Glc(a1-4)Glc): -0.07 | glycan array binding signal (z-score) [10]: 0.19 | glycan array binding signal (z-score) (Glc(a1-6)Glc(a1-6)Glc): -0.093 | glycan array binding signal (z-score) [11]: 0.977 | glycan array binding signal (z-score) (Glc(b1-4)Glc): 0.323 | glycan array binding signal (z-score) (Glc(b1-6)Glc): 0.483 | glycan array binding signal (z-score) (GlcA(b1-3)Gal): -0.032 | glycan array binding signal (z-score) (GlcA(b1-3)GlcNAc): -0.286 | glycan array binding signal (z-score) (GlcA(b1-6)Gal): 0.625 | glycan array binding signal (z-score) [12]: -0.172 | glycan array binding signal (z-score) [13]: 0.565 | glycan array binding signal (z-score) [14]: -0.375 | glycan array binding signal (z-score) [15]: -0.499 | glycan array binding signal (z-score) [16]: -0.038 | glycan array binding signal (z-score) [17]: -0.761 | glycan array binding signal (z-score) [18]: -0.932 | glycan array binding signal (z-score) [19]: -0.307 | glycan array binding signal (z-score) [20]: -0.571 | glycan array binding signal (z-score) [21]: 0.104
